From PubChem BioAssay AID686971 (National Center for Advancing Translational Sciences (NCATS), 2013)
The campaign covered roughly 360,000 compounds. About 7,500 (2.1%) were called active. The inconclusive results got no clear call from the source; some entries with a clear call stand among them for comparison. The call rests on the fitted dose curve; in most records, active means well fitted cell-killing curve with a large enough effect; inconclusive means small, poorly fitted or top-dose-only effect, or effect the other way, or another doubt; inactive means no such curve, though single readings can be large or run the other way. Potencies of inconclusive entries are left out as doubtful fits.

test: qHTS for induction of synthetic lethality in tumor cells producing 2HG: qHTS for the HT-1080-IDH1KD cell line; settings: HT-1080 IDH1 knockdown viability, ATP luminescence, 48 h; activity, negative = toxicity: at 46.1 µM (top of the series) unless noted;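 on activity, negative = toxicity: 0% = DMSO wells and -100% = cell-free medium wells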
Summary of the method: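 Assay cells: HT-1080 with IDH1 knockdown, 750 per well, RPMI/5% FBS. Exposure: 48 h at 37 °C following 2 h pre-incubation. Read: CellTiter-Glo luminescence; fitted concentration-response, curve class assigned.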
Potency means the concentration at half of the fitted maximal effect; tags describe the fitted curve by direction and shape.

Compound | Potency | activity, negative = toxicity
COc1ccc(/C=C2/SC(=O)N(NS(=O)(=O)c3ccccc3)C2=S)cc1OC | inconclusive [cytotoxic, partial curve] | 
COc1ccc(C(=O)OCC(=O)NC(=O)NC2CCCC2)cc1OC |  | inactive: 1.93%
Nc1[nH]c(C(=O)c2ccccc2)c(-c2ccc(Cl)cc2Cl)c1C(=O)NCCc1c[nH]c2ccccc12 | inconclusive [cytotoxic, single point] | 
CCCCN(CC)CCNC(=S)Nc1ccc2nc(N3CCN(C)CC3)cc(C)c2c1 | inconclusive [cytotoxic, single point] | 
S=c1[nH]nc(-c2ccco2)n1/N=C/C(Cl)=C/c1ccccc1 | inconclusive [cytotoxic, single point] | 
O=S(=O)(CCN1CCN(c2ccccn2)CC1)c1ccc(F)cc1 |  | inactive: 6.96%
COc1ccc(/C=N/n2c(SC)nnc2-c2ccccc2)c(OC)c1OC | inconclusive [cytotoxic, full curve] | 
CCCCOc1cccc(C(=O)NC(=S)Nc2cccc(C(F)(F)F)c2)c1 |  | inactive: -2.02%
CC1CCC(N2CC(=O)N(Cc3ccc4c(c3)OCO4)C(c3ccc(F)cc3)C2=O)CC1 (centres undefined) | inconclusive [cytotoxic, single point] | 
COc1ccc(/C=C/C(=O)NCc2c(C)nn(C)c2C)cc1COc1ccc(Br)cc1 | inconclusive [cytotoxic, single point] | 
O=C(c1ccc(CS(=O)c2cccc(Cl)c2)o1)N1CCN(c2ccccn2)CC1 (centres undefined) | inconclusive [cytotoxic, partial curve, poor fit] | 
CC(C)=NOc1cc(NC(=O)CCl)cc([N+](=O)[O-])c1 | active: 9.2 µM | 
Cc1ccc(OCCNC(=O)[C@H]2O[C@@H](n3cnc4c(N)ncnc43)[C@H](O)[C@@H]2O)cc1C |  | inactive: -0.0839%
CCn1c(SCC(=O)Nc2cc(OC)ccc2OC)nnc1C1CCCCC1 |  | inactive: -4.93% [at 9.24 µM]
O=S(=O)(CCSc1nc2ccccc2o1)c1nc2ccccc2s1 | active: 6.31 µM | 
CCOc1ccc(OCCC(=O)OCC(=O)N2CCN(S(=O)(=O)c3ccc(Cl)cc3)CC2)cc1 | inconclusive [cytotoxic, single point] | 
CC1(CNC(=O)C(=O)NCC2(C)CO2)CO1 (centres undefined) |  | inactive: -17.9%
O=C(CSc1nc2ccc(NC(=O)CSc3nnnn3Cc3ccccc3)cc2s1)Nc1ccccc1 | inconclusive [cytotoxic, single point] | 
CC(C)NC(=O)Nc1ccc2c(c1)C(=O)N([C@H](C)CO)C[C@H](C)[C@@H](CN(C)S(=O)(=O)c1ccc(F)cc1)O2 |  | inactive: 7.66%
COc1ccc(-c2nc(-n3c(C)c(C(C)=O)c(C(C)=O)c3C)sc2C)cc1OC |  | inactive: 6.48%
[N-]=[N+]=CC(=O)C(c1ccccc1)(c1ccccc1)c1ccccc1 |  | inactive: 1.05%
CCc1ccc(NC(=O)Cn2c(=O)c3cccn3c3ccccc32)cc1 | inconclusive [cytotoxic, single point] | 
O=C(CCNc1ccc(F)cc1)c1cccc([N+](=O)[O-])c1 | inconclusive [cytotoxic, single point] | 

Compound | Potency | activity, negative = toxicity
CC(C)Nc1nc(NCCN2CCCC2)c2sc(-c3ccccc3)cc2n1 | inconclusive [cytotoxic, single point] | 
COc1cc(C(=O)Nc2ccc3nc4n(c(=O)c3c2)CCCCC4)cc(OC)c1OC | active: 18.4 µM | 
C=CCn1c(C)cc(C(=O)COc2ccc(N(C)S(=O)(=O)c3ccc(NC(C)=O)cc3)cc2)c1C | inconclusive [cytotoxic, partial curve, poor fit] | 
O=C(COC(=O)CNS(=O)(=O)c1ccc(Br)cc1Cl)NCCc1ccccc1 |  | inactive: 16.7%
Cc1c(C(=O)Nc2ccccn2)sc2nc3n(c(=O)c12)CCC3 |  | inactive: 7.01%
COc1ccccc1-n1cnc2cc(NCc3ccco3)ccc21 | inconclusive [cytotoxic, full curve] | 
O=c1[nH][nH]cc1C=Nc1cc(Cl)ccc1O | inconclusive [cytotoxic, partial curve] | 
CC(C)(C)NC(=O)NC(=O)COC(=O)C1CCN(S(=O)(=O)c2cccs2)CC1 |  | inactive: 8.33%
COc1ccc2cc3cc(C(=O)N4CCCCCC4)oc3nc2c1 |  | inactive: -6.74%
Cc1cccc(N2CCN(C(=O)c3ccc(NC4=NC5CS(=O)(=O)CC5S4)cc3)CC2C)c1 (centres undefined) | inconclusive [rising, single point] | 
Cc1onc(-c2ccccc2Cl)c1C(=O)NCc1ccccc1 |  | inconclusive: 32%
CC1CCN(c2ccc(C(=O)NCCc3ccccc3)cn2)CC1 |  | inactive: -3.28%
O=C(Nc1cc(Sc2ccccn2)cc([N+](=O)[O-])c1)c1cccc(F)c1 | inconclusive [cytotoxic, partial curve] | 
CCCCOCCCNC(=O)C[C@@H]1C[C@@]2(C(=O)OCC)CCC=C2N(Cc2ccc(Cl)cc2Cl)C1=O | inconclusive [cytotoxic, single point] | 
CN1C(=O)C2(c3ccccc31)N(C)CC(c1ccccc1)C21SC(=S)N(Cc2ccco2)C1=O (centres undefined) |  | inactive: 3.63%
COC(=O)CC1(c2cccc3ccccc23)C(=O)c2ccccc2C1=O | inconclusive [cytotoxic, partial curve] | 
CC[n+]1oc(-c2ccccc2)cc1C |  | inactive: 1.83%
COc1cc2sc(-c3ccccc3OC)c(-c3ccc(OCCN4CCCCC4)cc3)c2cc1OC | inconclusive [cytotoxic, single point] | 
COc1ccc(C(=O)N/N=C\c2ccc(OC)c(COc3ccccc3Br)c2)c(OC)c1 | inconclusive [cytotoxic, single point] | 
CCN1/C(=C\c2ccc3ccccc3[n+]2CC)Sc2cc(C)ccc21 | inconclusive [cytotoxic, partial curve] | 
Cc1ccc(CCNC(=O)C2CCCN(S(=O)(=O)c3cccs3)C2)cc1 (centres undefined) | inconclusive [cytotoxic, single point] | 
COc1ccc(NC(=O)C2Cc3c(-c4ccc5c(c4)OCO5)ccnc3O2)cc1 (centres undefined) | inconclusive [cytotoxic, partial curve] | 
COc1ccc(C(=O)/C=C/Sc2nc3ccccc3o2)cc1 | active: 3.26 µM | 

Compound | Potency | activity, negative = toxicity
COc1cccc(N/N=C/c2cccc(Br)c2O)c1 | inconclusive [cytotoxic, partial curve] | 
Cc1cccc(C2=NN(c3ccc(Br)cc3)[C@@H](C(=O)N3CCOC3=O)[C@@H]2C)c1 | inconclusive [cytotoxic, partial curve] | 
O=C(O)CN1CCN(Cc2ccc(Cl)cc2)C1=O |  | inactive: 4.23%
COc1ccc(C(CNc2nc(-c3cccnc3)nc3ccccc23)N(C)C)cc1 (centres undefined) | active: 16.4 µM | 
CC1(C)Cc2c(cnn2-c2ccccc2)-c2c1c1ccccc1n2CC(O)CCl (centres undefined) | active: 20.6 µM | 
CCN(CC)c1ccc(/C=N/NC(=O)c2ccc3nc[nH]c3c2)cc1 | inconclusive [cytotoxic, partial curve, poor fit] | 
COc1ccccc1/C=C1\SC(=S)N(CCC(=O)N2CCN(C)CC2)C1=O | inconclusive [cytotoxic, single point] | 
O=C(NC1CCCCC1)c1ccc(Cn2cc(Cl)cn2)cc1 |  | inactive: 1.87%
CCOc1ccc(NS(=O)(=O)c2ccc(OC)c(C)c2)cc1 | inconclusive [cytotoxic, single point] | 
CC1(C)N=C(N)N=C(N)N1c1ccc(OCCCOc2ccccc2)c(Cl)c1 | active: 2.06 µM | 
CCNC(=S)N=Nc1c(O)n(Cc2ccc(Cl)cc2)c2ccccc12 |  | inconclusive: -2.29% [cytotoxic]
COc1cc(C(=O)Nc2nc(OC)c(-c3ccccc3)c(OC)n2)cc(OC)c1OC | inconclusive [cytotoxic, single point] | 
Cc1ccc2c(c1)c(N=O)c(O)n2Cc1ccc(Cl)cc1 |  | inactive: 2.44%
C=CCN(c1ccccc1)S(=O)(=O)c1cccc(C(=O)Nc2ccc(N3CCOCC3)cc2)c1 | inconclusive [cytotoxic, partial curve] | 
O=C(c1ccc(S(=O)(=O)Cc2ccccc2F)c([N+](=O)[O-])c1)N1CCCCCC1 | inconclusive [cytotoxic, single point] | 
Cc1cc(C)c2c(c1)NC(c1cc3c(cc1Br)OCO3)C1CC=CC21 (centres undefined) |  | inactive: -18.5%
COc1ccc(OC)c(Nc2c3ccccc3nc3ccccc23)c1 | active: 4.61 µM | 
COc1cc(/C=N/N=C(N)N)ccc1OCc1ccc(Cl)cc1 | inconclusive [cytotoxic, single point] | 
COc1ccc(OC)c(-n2cc3c(=O)n(C)c(=O)n(C)c3c2)c1 | inconclusive [cytotoxic, partial curve, poor fit] | 
Oc1ccc2ccccc2c1/C=N/c1nccs1 | inconclusive [cytotoxic, single point] | 
CC(C)C[C@H]1CN([C@@H](Cc2ccc(O)cc2)CN2CCC[C@@H]2CN2C(=O)C(=O)NC[C@@H]2Cc2ccccc2)C(=O)C(=O)N1CC1CCCCCC1 | inconclusive [cytotoxic, single point] | 
C=CCN(CC=C)S(=O)(=O)c1ccc(NC(=S)NC(=O)Cc2ccc(OC)cc2)cc1 | inconclusive [cytotoxic, single point] | 
O=C(Nc1cccc([N+](=O)[O-])c1)Nc1cccc([N+](=O)[O-])c1 | inconclusive [cytotoxic, partial curve] | 
